In the supplement of paper PMC11417369:
The other results are listed elsewhere or left out.

System: PfAP2-HC AP2 domain (GST-tagged)
Assay: gcPBM binding intensity (ln(normalized median fluorescence intensity)); higher = stronger DNA binding
How it was run: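 The highest Masliner-normalised natural-log median intensity across replicate spots of either probe orientation is reported as binding intensity. GST-tagged P. falciparum DNA-binding domains expressed in E. coli were applied for 1 h to an Agilent 4 × 180k array of primer-extended double-stranded 36-bp intergenic genomic probes plus negative controls, and bound protein was detected with Alexa488 anti-GST antibody and scanned at 488 nm.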

| Sequence | gcPBM binding intensity (ln) |
| --- | --- |
| ATCAAACCATAAAAGAGTACAAAAGGATGATATTTT [XGTACX_site8883] | 9.71 |
| TATTTTAAAGAGAAAACATGCATTATATAGAACATT [TGCATGCA_site328] | 9.51 |
| ATAAAATATAGATGCACACACATATAGATTTCATAC [CACACA_site7636] | 10.1 |
| TTTTTTAATTGTGATACGTATATTATTTAATGATAA [GTGCAC_negctrl_site704] | 9.41 |
| TGTATATTTTTTATTACACACTTTTTACTTTTTAGA [CACACA_site3069] | 9.73 |
| TATTTATTGTGATACTTATATTATTTTATGATTAAA [CACACA_negctrl_site901] | 9.28 |
| AGAGAGATGACAAAAAGATGAATAACGTTAAGGGAT [XGTACX_negctrl_site120] | 10.2 |
| ATGGAAATATATACATGTACATAAATATATATATAT [XGTACX_site8391] | 9.77 |
| AGTGGACTTTTTTTTTTTTTTTTTTTTTTTTTATTA [CACACA_negctrl_site547] | 9.44 |
| ATGTTTTGCATATATTATATATTTATTTATTTTTTT [CACACA_negctrl_site729] | 9.79 |
| AGTAGTCTGGAGAAGAGTACATAGTATCTGGTAACC [XGTACX_site2043] | 9.68 |
| GTATGGCGTATCATATGTACTAAAAAAAAATAAAAA [XGTACX_site5101] | 9.51 |
| AATAAAAAAATGTCACGTACTTATTTTATTAAACCT [XGTACX_site3031] | 9.53 |
| TATTTATCATCATATTGTACATTATATATATAAAAT [XGTACX_site6675] | 9.39 |
| AAGTATGTCGACTGTTGTACTTTTATCATTTATTAT [XGTACX_site1129] | 9.86 |
| ATATACTATGATAATACATGCGATAATACATTTTTA [TGCATGCA_site387] | 9.66 |
| ATCTGTCGACAGGACAGTACACAGTAGCCAGTAACT [XGTACX_site2001] | 9.63 |
| TTATATGCTCAATGTTGTACATGTAGATATATATAT [XGTACX_site8211] | 9.61 |
| ATATATATATATAGTGCACACATATAAAATATATAT [CACACA_site8884] | 9.88 |
| AATATTTATGTGAAGACACACAACTGTTTATTATAT [CACACA_site3447] | 9.77 |
| ATATGTAAAACTTCAAAAAAATATATTTTATGACGA [GTGCAC_negctrl_site324] | 9.72 |
| ATCCTACTATGTTATACACACAATTACTTTTTTCTC [CACACA_site3712] | 10.1 |

| Sequence | gcPBM binding intensity (ln) |
| --- | --- |
| TTACAACAGAATGGTATTTTTTTATTTTAAAGAAAA [TGCATGCA_negctrl_site230] | 9.33 |
| AGATACTTTCCTCAAACACACAAAACTATACAACAA [CACACA_site1474] | 10.1 |
| ATTCAGTTCTATAATACACACATATATTGACATTAT [CACACA_site7309] | 9.94 |
| ATATTCTTCTAAAGGCGTACATCTACATTTATGAAA [XGTACX_site2145] | 9.32 |
| GTTAGCTCGTTCGGAGCACACACATATATATATATA [CACACA_site8595] | 9.84 |
| TTTTTTTTTTTTTGGTGTACTTTTTTTAGAACGCAA [XGTACX_site4207] | 9.33 |
| AAAATTTATATAGGCACACAAATAAATTAATACATA [CACACA_site1418] | 9.85 |
| AAAAATGAAAGGTGTACACATACAAACATAGAAAGA [CACACA_site5020] | 10.2 |
| TTTTTTCTTTCTTTCAAACACACATTAATTTTATTC [CACACA_site2733] | 9.75 |
| ATATTAGAAATATGAATAGAAAGAATATATAAGTAT [CACACA_negctrl_site682] | 9.91 |
| TGTTCAAATTTATTCGATCTTTATATTTAATAAAAC [CACACA_negctrl_site781] | 9.39 |
| ATTCTACACCCACATACACACATATATATATATATA [CACACA_site3426] | 10.2 |
| AGTTCTTCGTACCAAAAAACGGCACGCATATGTATA [TGCATGCA_negctrl_site469] | 9.5 |
| TGTATTCATACATGCACACGTACATATTTAAATATA [CACACA_site3926] | 9.71 |
| AATTATATTCTATTCACACATATTCCAACCTCTTTT [CACACA_site4670] | 9.89 |
| TTTGATGGTACACGTACACACCTTGCAAATATTTTT [CACACA_site4645] | 9.89 |
| TGAAAGAACCTGATTACACACATAAATTATATATAT [CACACA_site26] | 9.83 |
| ATGAATATAATAAAGAAACACACGTATACATAATGA [CACACA_site1355] | 10.1 |
| TGTATGTTGTAAAATTGTACATATATATTATATTTA [XGTACX_site4883] | 9.61 |
| ATATATAAAATATACACACATACTGTTCATTTAAAG [CACACA_site4169] | 9.74 |
| AAAAAAAATTATATATGTACTTATTAATCCTTATAT [XGTACX_site1389] | 9.57 |
| TATTTCAAAAAAAAAAAAAATAAAAAACAACAACAA [CACACA_negctrl_site893] | 9.56 |

| Sequence | gcPBM binding intensity (ln) |
| --- | --- |
| ATTTATATATCGCCCACACACATGTGATTATTTATA [CACACA_site6905] | 10.1 |
| TACTACTATCTATATTGTACAAAAGGTGCCTACAAA [XGTACX_site4267] | 9.58 |
| TTCATTTATTTACTTACACACTTTATATATGTGGTT [CACACA_site4901] | 9.9 |
| TCTATTCAAAATAAAAGTACTAGCATGTGAATTGTT [XGTACX_site5530] | 9.49 |
| TACAAGTTTTTAAAGTGTACCAAAAAAAAAGAATAA [XGTACX_site979] | 9.73 |
| TATCTCTTATTTTATTGTACTTAACTATGCTATAAT [XGTACX_site4904] | 9.7 |
| AAAAATAAAAAAATGACACACATATATATATATATA [CACACA_site2307] | 10.2 |
| TAAGTATAATATTGATGTACATATAATAACTTGTAT [XGTACX_site417] | 9.88 |
| AAGAGAAATTATAACATGTGAAATGTATTATATATA [TGCATGCA_negctrl_site254] | 9.73 |
| ATTTATATATAATATACACACATATAATCCACATAT [CACACA_site699] | 10.3 |
| AAGGGAAAATTAAGGTTGCACTAAAAATATATCTTT [GTGCAC_site9608] | 9.51 |
| ATGAACATACAATATACACACATATATATTTATATT [CACACA_site4609] | 10.3 |
| TAGTTAACAAATAATGCACACAAATGGATAAAATTA [CACACA_site9240] | 9.92 |
| ATTCAAATTGTAGAAACACACAAAAACTTAACATAT [CACACA_site2617] | 9.93 |
| CATATGATATGTTATACACACACGTATATATGAATT [CACACA_site3446] | 9.92 |
| CTTTGTGTTAAAAGTAGTACACCAAAAATATGACTT [XGTACX_site622] | 9.55 |
| AGATACGATTATATGCGTTCAATATACCAAATAATT [TGCATGCA_negctrl_site501] | 9.55 |
| TTTTTCATCATATGTTGTACAATGTGTAGATATATT [XGTACX_site3195] | 9.71 |
| CACGCGCCCGGACACACACACACACCCATATATATA [CACACA_site5251] | 11.3 |
| GAATAAATATTAAATGTGCACTTGAATAGATGTAAA | 9.79 |
| TATTTGTAATATTATACACACATTATATATTACAAA [CACACA_site5804] | 9.69 |
| CGTAGCCACACTAACACACACAAATATACACAATCA [CACACA_site7379] | 10.7 |

| Sequence | gcPBM binding intensity (ln) |
| --- | --- |
| ATTTAAATAACGTATGTATATACATATATATATATA [TGCATGCA_negctrl_site207] | 9.76 |
| TATTTTGTATATAAATGTACAAGTATATATTTTTTC [XGTACX_site7855] | 9.5 |
| GATAAATGTATATATGCATGCACATATATTTATACA [TGCATGCA_site748] | 9.75 |
| TGCATTATTTACAAGGTGCGTTACAAATGTGTAACA [GTGCAC_site9442] | 9.48 |
| GCTTTAATCTGAAAGTGTACAGATAATATATTTATA [XGTACX_site2462] | 9.46 |
| TATGAATATTTGTATACATGCATATAGAAATCATAT [TGCATGCA_site533] | 9.6 |
| ATATATTATATATATATATATATATATTATTATTGT [TGCATGCA_negctrl_site286] | 9.6 |
| TACTATAACGCACATACACACAAAAAAAAAAAAAAA [CACACA_site8073] | 10 |
| TATATATATATTTTTGCATGTAATTTTTATGAGGAC [TGCATGCA_site884] | 9.57 |
| ATATGGTGATATAGGTGTACATTTTGATGCTTATTT [XGTACX_site4283] | 9.83 |
| TTATACATGAAATATTGTACACATATATATATATAT [XGTACX_site4378] | 9.76 |
| ATATATAGAATGTGTACACACATATGTATTTATATA [CACACA_site810] | 10.3 |
| ATTTTTTATGGACAAAAGACCTCTGATGTAAATATA [CACACA_negctrl_site1081] | 9.37 |
| TTTTTTTTTTTCTTAGTGCGCGTGAAAAATATAAAA | 9.31 |
| AATTAGATTATGCACACACACTTAAAAATAATAAAT [CACACA_site7015] | 10.7 |
| TTACTCAAACAAACAAAAAAAAAAAAAAAAAAAAAA [TGCATGCA_negctrl_site457] | 8.89 |
| AGTATACATATATATACACACACACCGATATATATA [CACACA_site8357] | 10.4 |
| TAAAAAAAATAAACGTGTACATAAAAATGAATATGT [XGTACX_site119] | 9.86 |
| TTAATATATTAAATCTTACACACTAAAAAATATGTA [CACACA_site307] | 9.46 |
| GAAAATATTATAGCACCACACACTTATTTTATATAT [CACACA_site2265] | 10.2 |
| AACGTTAAAAAAAAAATATATATAAGGAGAAAGCAC [XGTACX_negctrl_site338] | 9.86 |
| TATGCGTCTTGCCTTGCACACTTTTATGAAAAAAAA [CACACA_site5174] | 9.63 |
